According to publication PMC4336329 (PLoS ONE, 2015):
The whole screen tested about 310,000 compounds, of which about 14,000 (4.5%) showed an effect of 50% or more. Effects have a minus sign here. This is one part of the list.

Biological target: human ether-à-go-go-related gene (hERG) potassium channel (human, UniProt Q12809)
Test: primary screen, population patch clamp on CHO cells stably expressing hERG
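Further: peak tail current of the secondary pulse compared with the same well before compound.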

Chain of human ether-à-go-go-related gene (hERG) potassium channel (Q12809 whole entry, looked up): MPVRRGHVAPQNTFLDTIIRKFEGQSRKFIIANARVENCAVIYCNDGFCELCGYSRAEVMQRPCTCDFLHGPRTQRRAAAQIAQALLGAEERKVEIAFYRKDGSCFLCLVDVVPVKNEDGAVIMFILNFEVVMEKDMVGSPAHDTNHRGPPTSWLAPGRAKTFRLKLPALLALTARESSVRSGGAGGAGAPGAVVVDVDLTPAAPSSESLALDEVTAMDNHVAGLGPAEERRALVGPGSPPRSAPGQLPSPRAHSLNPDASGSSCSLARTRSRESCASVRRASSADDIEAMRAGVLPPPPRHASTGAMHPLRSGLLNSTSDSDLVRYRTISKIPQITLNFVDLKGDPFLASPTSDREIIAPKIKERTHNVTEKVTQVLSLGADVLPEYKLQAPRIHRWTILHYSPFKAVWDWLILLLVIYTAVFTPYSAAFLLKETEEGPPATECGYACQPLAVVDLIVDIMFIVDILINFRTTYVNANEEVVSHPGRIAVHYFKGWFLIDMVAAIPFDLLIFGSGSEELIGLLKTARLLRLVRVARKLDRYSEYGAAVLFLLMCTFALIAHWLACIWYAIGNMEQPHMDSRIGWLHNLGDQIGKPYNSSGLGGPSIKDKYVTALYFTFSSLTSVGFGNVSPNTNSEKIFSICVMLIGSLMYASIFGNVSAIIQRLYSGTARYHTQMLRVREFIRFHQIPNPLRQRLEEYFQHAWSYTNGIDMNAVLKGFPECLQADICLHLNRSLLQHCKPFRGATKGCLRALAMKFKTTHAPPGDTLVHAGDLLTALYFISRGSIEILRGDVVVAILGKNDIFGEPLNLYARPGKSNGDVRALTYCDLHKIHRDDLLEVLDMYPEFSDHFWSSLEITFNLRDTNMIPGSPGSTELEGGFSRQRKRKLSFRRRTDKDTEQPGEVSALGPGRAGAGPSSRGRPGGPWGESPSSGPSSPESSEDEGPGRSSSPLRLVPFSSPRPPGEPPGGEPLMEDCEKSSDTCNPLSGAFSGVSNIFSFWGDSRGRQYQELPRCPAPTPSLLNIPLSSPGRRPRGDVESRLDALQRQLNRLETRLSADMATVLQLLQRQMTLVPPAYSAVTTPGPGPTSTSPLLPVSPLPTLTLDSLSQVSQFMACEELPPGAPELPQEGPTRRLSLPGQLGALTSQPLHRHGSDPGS

| Compound | hERG current change (%, negative = inhibition) at 10uM |
| --- | --- |
| COc1cccc(NC(=O)Cn2nnc(C(=O)NCc3ccc4c(c3)OCO4)c2N)c1 | 18.3% |
| CC(C)OCCCNC(=O)Cc1ccc(F)cc1 | 3.48% |
| Cc1ccccc1-n1ncc2c1CC(C)(C)CC2NC(=O)CCC1=NNC(=O)CC1 (stereo not shown) | -75.9% |
| O=C(NC(=S)NCC1CCCO1)c1ccco1 (stereo not shown) | 1.71% |
| COC(=O)C1=C(c2ccc(F)cc2OCc2ccccc2)C[C@@H]2CC[C@H]1N2C(=O)NCc1cccc(OC)c1 | 2.72% |
| CC(OC(=O)c1cc2sccc2n1C)C(=O)NCc1ccc(F)cc1 (stereo not shown) | -4.67% |
| Cc1noc(NS(=O)(=O)c2ccc(NC(=O)CSc3nc4ccccc4[nH]3)cc2)c1C | -12.7% |
| Cc1onc(-c2ccccc2)c1-c1nc2ccccc2c(=O)o1 | 23.8% |
| CC1CCCCN1CC(=O)Nc1ccccc1Sc1ccccc1 (stereo not shown) | -4.77% |
| CN1CCN(C(=O)CC2(CC(=O)O)CCCC2)CC1.Cl | -1.66% |
| COc1cccc(-n2nnc3c(=O)n(Cc4c(F)cccc4Cl)cnc32)c1 | -1.4% |
| O=C1CCc2cc(S(=O)(=O)NCCCC(=O)N3CCN(Cc4ccc5c(c4)OCO5)CC3)ccc2N1 | -0.149% |
| C=CCNC(=O)CN1CCC(n2c(C)nc3cc(C(F)(F)F)ccc32)CC1 | -62.1% |
| CC1(C)Cc2c(c(N3CCOCC3)nc3sc(C#N)c(N)c23)CS1 | 10.2% |
| COc1ccc(OC)c(NC(=S)N(CCc2c(C)[nH]c3ccc(C)cc23)Cc2cccs2)c1 | 4.8% |
| CCSc1nnc(NC(=O)CC(C)C)s1 | 21.8% |
| Cl.Nc1ccc2nc(C3CCCCC3)[nH]c2c1 | 8.03% |
| CCOc1ccc(Cn2c(SCCCCC#N)nc3c2c(=O)n(C)c(=O)n3C)cc1OCC | -43.8% |
| COc1cccc(CNC(=O)CCn2c(=O)c3cccn3c3cccnc32)c1 | -10.1% |
| CC(=O)C1=C(C)OC(N)=C(C#N)C1c1cc2cccc(C)c2nc1Cl (stereo not shown) | -8.82% |
| Cc1cc(N2C(=O)C(O)=C(C(=O)c3ccco3)C2c2ccc(Cl)cc2)no1 (stereo not shown) | -6.77% |
| O=C(O)Cn1nnnc1SCC(=O)Nc1ccccc1F | 16.2% |

| Compound | hERG current change (%, negative = inhibition) at 10uM |
| --- | --- |
| COc1cc(C)nc(NS(=O)(=O)c2ccc(C)cc2)n1 | 10.5% |
| Cc1ccc(NC(=S)N/N=C/c2c(C)[nH]c3ccccc23)cc1 | 19.8% |
| CC1CN(C(=S)Nc2ccc(Br)cc2)CC(C)O1 (stereo not shown) | 17.7% |
| O=C(O)COc1ccc(/C=C2\SC(=Nc3ccccc3)N(c3ccccc3)C2=O)cc1 | 14.5% |
| CCOc1ccc(-c2nc(C)sc2CC(=O)O)cc1 | 11% |
| O=C(N/C=N/OCc1cccc(C(F)(F)F)c1)N1OC[C@@H]2COc3ccc4ccccc4c3[C@@H]21 | 17.4% |
| C/C(=N\NC(=O)c1ccc(-c2ccccc2)cc1)C1C(=O)c2ccccc2C1=O | 23.7% |
| COc1ccc(NC(=O)CSc2nc3c(c(=O)[nH]2)CCC3)cc1OC | 6.73% |
| CNC(=O)CCc1nc(-c2ccc(C(C)(C)C)cc2)no1 | -1.08% |
| COc1cc(C2N(c3ccc(Cl)cc3)C(=O)C3CCCN32)cc(OC)c1OC (stereo not shown) | 0.883% |
| CC1CC(=O)N(C)c2ccc([N+](=O)[O-])cc2N1 (stereo not shown) | -4.75% |
| Cc1cc(NC(=O)CSc2nc(-c3ccc(Cl)cc3)cs2)no1 | -5.45% |
| Cc1ccc(NCc2ccccc2F)cc1 | 0.973% |
| N#CC(c1cccc(C(F)(F)F)c1)(c1ncc(C(F)(F)F)cc1Cl)N1CCOCC1 (stereo not shown) | 4.46% |
| C=CCNC(=S)NNC(=O)c1ccc2c(c1)OCO2 | -7.24% |
| CC(=O)c1cccc(NC(=O)CCOc2ccccc2)c1 | 6.88% |
| COc1ccccc1N1C(=O)c2ccc(C(=O)Nc3ccc(C(=O)O)cc3)cc2C1=O | 13% |
| CCN(CC(=O)Nc1ccc(Br)cc1F)CC(=O)NC1CCS(=O)(=O)C1 (stereo not shown) | -6.88% |
| Cc1cccc2[nH]c(SCC(=O)N3CCOCC3)nc12 | 9.18% |
| O=C(Cn1ncc2c1-c1ccccc1OC2)N1CCN(Cc2ccccc2)CC1 | -68.5% |
| O=C1Nc2cc(C(=O)N3CCc4ccccc4C3)ccc2S/C1=C\c1ccccc1 | -5.33% |
